# From the supplement of paper PMC3334620
# Whole data set: some 33,000 sequences, median “E-score (-0.5 to 0.5)” near -0.016, cut for the highest 2% near 0.32. This is one part of the list.
# Target: T1, Stp1 (UniProt B3LFK1)
# T1 sequence: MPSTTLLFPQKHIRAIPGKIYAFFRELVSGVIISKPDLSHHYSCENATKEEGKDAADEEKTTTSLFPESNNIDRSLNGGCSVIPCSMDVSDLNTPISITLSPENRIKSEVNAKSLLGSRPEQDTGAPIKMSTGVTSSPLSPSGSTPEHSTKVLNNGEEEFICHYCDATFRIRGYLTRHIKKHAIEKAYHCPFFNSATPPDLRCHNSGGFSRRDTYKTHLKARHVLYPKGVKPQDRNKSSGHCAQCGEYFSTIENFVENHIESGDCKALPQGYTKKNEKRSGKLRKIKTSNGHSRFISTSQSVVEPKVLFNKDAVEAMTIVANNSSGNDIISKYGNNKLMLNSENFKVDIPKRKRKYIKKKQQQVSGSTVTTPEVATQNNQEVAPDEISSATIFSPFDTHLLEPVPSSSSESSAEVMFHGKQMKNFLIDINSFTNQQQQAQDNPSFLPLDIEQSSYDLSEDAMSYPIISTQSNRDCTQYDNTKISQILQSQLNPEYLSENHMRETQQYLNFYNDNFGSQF
# Assay: PBM E-score (8-mer binding enrichment) (E-score (-0.5 to 0.5)); higher = stronger / more preferred TF binding; most listed sequences are background and not binding sites
# Details: protein concentration: 200 nM; construct: GST-full length
# Outline: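 Yeast transcription factors carrying a GST tag, as full-length proteins or DNA-binding domains, were produced by PURExpress in vitro transcription/translation. About 100-200 nM protein was applied to universal all-10-mer Agilent arrays, double-stranded by primer extension on fresh or once-stripped slides. Bound protein was detected with fluorescent anti-GST, and scans were normalised with masliner. The Universal PBM Analysis Suite gave each ungapped eight-base word, pooled with its reverse complement, an E-score, a modified Wilcoxon-Mann-Whitney statistic.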
row,Sequence,PBM E-score
1,CATACGTC,-0.138
2,AGTGAACC,0.00324
3,CACGAAAG,0.106
4,ACCGCGCC,0.3
5,GTCTTAAA,-0.0945
6,CAGAAGTC,-0.192
7,TATAGCAA,-0.0711
8,GACTGTCA,-0.0708
9,CAAGGGAA,0.0744
10,CTTTAATC,0.0789
11,CTGTCCCC,-0.364
12,GACACCAA,0.0295
13,CGCCGGAA,0.109
14,AACCTTGA,-0.0386
15,ACCGGCCT,-0.0369
16,ATAAGACC,-0.103
17,CAGCCAGC,-0.244
18,CGCCCTAA,-0.084
19,ATAATCTA,0.053
20,GGCGTCCC,0.0235
21,AAGGGTGT,-0.152
22,AGATTAAT,0.00922
23,CCCACGGA,0.00496
24,ATGGTACG,0.18
25,GGTCTCAC,-0.159

row,Sequence,PBM E-score
1,AACGAGAG,-0.0987
2,TAGAGCTA,-0.174
3,AATACGGA,0.173
4,GGCGCCTA,0.362
5,CTTTGTTC,0.134
6,CGAACTTC,-0.0192
7,CATGATAG,-0.0255
8,CCTTGCTC,-0.0614
9,CAAAGCGA,0.00981
10,ATGCACAC,0.148
11,AATTCGTG,0.161
12,CCGTTCCG,0.318
13,CGATGTAC,-0.0264
14,AAGGACGG,-0.0585
15,ACAAGCAA,0.0867
16,CAGCCTGC,-0.088
17,CTAAGCGC,-0.0206
18,AACCGTAA,0.0882
19,GTCTGAAA,0.0495
20,CAGATTAA,0.0924
21,CTCGGACC,-0.161
22,GAATAATC,0.0692
23,ACCCCAGA,-0.33
24,AGCTGCCG,0.222
25,ACCCGCCA,-0.171

row,Sequence,PBM E-score
1,AGACCCAG,-0.295
2,GTCTACAA,-0.0248
3,TTCGGCAA,0.088
4,CAGATGCG,0.00161
5,AACTTCGG,-0.0905
6,CGCAACGA,0.131
7,ATTTCAGA,0.044
8,GTTTCATA,-0.0643
9,AGCCCTCA,-0.218
10,GCCCGTAC,0.0884
11,CCACAAAC,0.0354
12,CGTTCCAA,0.167
13,TAAGAAAA,0.0953
14,GGTCCCCA,-0.199
15,GTTGAACA,-0.00185
16,AAACTAGG,0.0829
17,CTCAAAAA,0.00023
18,AAAGGGAC,-0.055
19,ATTTCGGG,-0.172
20,ACGCTCAT,-0.187
21,CGCTACGC,-0.027
22,GGTCTGCA,-0.154
23,CTCTGTCA,0.021
24,CCTAGTGA,-0.135
25,ATTCAGAC,-0.0444

row,Sequence,PBM E-score
1,CGTTTTTA,0.0924
2,GGGCATAC,-0.00074
3,CTAAAGGC,0.0474
4,ACCGGGTC,-0.219
5,CGGCGTAG,0.335
6,ACATTTAC,0.07
7,ACAATTGC,0.0595
8,CTACGATC,-0.115
9,ACTCGACA,0.00404
10,CTTTATAA,0.0982
11,ACTGGTAT,-0.0959
12,CCATTTCG,-0.154
13,GACTCGGA,-0.185
14,GGGCGCCA,0.309
15,CCACCCTA,-0.161
16,CTTACTTC,-8e-05
17,CGAAAGTA,-0.059
18,GGTCTGAC,-0.202
19,CTGTCCAA,0.0223
20,CTCGGTTA,-0.119
21,ACGGAAGG,-0.181
22,CACCTGGA,-0.138
23,TCTTGTAA,0.177
24,ATCCTGGG,-0.144
25,CCATTTAG,-0.00669

row,Sequence,PBM E-score
1,AACATAAC,0.115
2,CCGATTAG,-0.03
3,GCGTGCCC,0.0203
4,GAAAGGTA,-0.0491
5,AGATGCTG,-0.163
6,CCCCGAGC,-0.191
7,CTCCGGGC,-0.307
8,TCAAGCCA,-0.0664
9,CTATCAAA,-0.0777
10,GATGCTCC,-0.147
11,AAAAACCC,-0.0397
12,CTAGTGTA,0.00887
13,GCAGCTGC,0.133
14,TCGGCGCA,0.243
15,CCTACGAG,-0.0232
16,CCTAGAGA,-0.17
17,GTTGTGCA,-0.214
18,ATGTACTC,-0.0367
19,ACCCAATG,-0.194
20,ACGGCATC,0.48
21,GTTTTTGA,0.123
22,CCCACCCG,-0.194
23,AACTTCGT,0.00971
24,ACCTTATC,-0.137
25,AGCCTCAA,-0.0893

row,Sequence,PBM E-score
1,GCCTTCTA,0.0559
2,CCGGTGGC,0.00746
3,AAGACGGT,-0.169
4,CTCCGCTC,-0.0143
5,ATTACCCG,-0.0176
6,ATGCTTCC,-0.0691
7,GTTAGCGA,0.0822
8,AAGGAATC,-0.032
9,ACAGGCAG,-0.134
10,ACACCTGA,-0.0687
11,CTCCGGTA,-0.104
12,AAAGTCTG,-0.115
13,CACTGACA,0.021
14,CATCAATG,0.139
15,CTGTTCAC,-0.0791
16,TCAGCTCA,-0.0224
17,GCGCAGGA,-0.207
18,CTTCTATA,0.0369
19,CATACGAG,0.101
20,AATACCCT,-0.0653
21,CCTTACCC,-0.151
22,AAAAGCCC,-0.145
23,AGTGAGGA,-0.0438
24,AAAGCTTG,-0.0577
25,GGGTTCTA,-0.299

row,Sequence,PBM E-score
1,AACCTGGG,-0.226
2,GCAAAGTA,0.0607
3,TCCCCACA,-0.298
4,TTAACTAA,0.211
5,CCCGCACA,0.0598
6,AAGGTTGT,0.0917
7,GCTTCCAA,0.0396
8,AGTCAATA,-0.0119
9,GCTTTGCC,0.0893
10,AGCGGCGA,0.386
11,CCGGTATA,-0.168
12,ACGGATCA,0.118
13,AAATTCTA,-0.0101
14,CTAACAAC,0.144
15,AACTTACC,-0.0292
16,GACTAAAA,-0.0127
17,ACGTATAG,-0.0186
18,GGGTCAAA,-0.159
19,AGTCCCTA,-0.271
20,ATAGGATA,-0.026
21,ATGCGCAG,-0.224
22,GTTTCCAA,-0.115
